Patent publication EP4702992A1, “ANTIBODY-DRUG CONJUGATE” (priority 2023, dated 2024)

T1: B7H3 antigen on A375 surface (Homo sapiens, UniProt Q5ZPR3)
T1 construct: endogenous in cells; host or cells: A375
T1 sequence (Q5ZPR3 29-534): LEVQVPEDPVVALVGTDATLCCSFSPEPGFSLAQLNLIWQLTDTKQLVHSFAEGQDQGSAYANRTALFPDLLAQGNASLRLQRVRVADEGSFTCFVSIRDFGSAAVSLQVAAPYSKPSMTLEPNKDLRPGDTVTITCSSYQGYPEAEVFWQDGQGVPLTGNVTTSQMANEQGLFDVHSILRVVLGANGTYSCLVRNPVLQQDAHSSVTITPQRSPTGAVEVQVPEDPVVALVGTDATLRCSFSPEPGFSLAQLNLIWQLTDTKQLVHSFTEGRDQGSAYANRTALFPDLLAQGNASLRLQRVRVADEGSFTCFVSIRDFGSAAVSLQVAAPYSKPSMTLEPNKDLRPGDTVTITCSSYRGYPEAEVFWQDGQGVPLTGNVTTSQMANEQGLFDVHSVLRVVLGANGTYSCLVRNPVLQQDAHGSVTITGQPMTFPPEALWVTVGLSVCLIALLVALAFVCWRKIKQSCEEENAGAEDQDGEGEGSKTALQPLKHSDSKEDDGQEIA


Experiments:
[1] = molecular target: T1, B7H3 antigen on A375 surface; test: Determination of ADC affinities by FACS; assay type: binding; conditions: A375 cells, flow cytometry (MFI)
Experimental: The affinities of B-ADC55-1-6, B-ADC2-1-6, B-ADC12-1-6, and DSADC were determined using the B7H3-positive human melanoma cell strain A375. Each sample was diluted to 15000 ng/mL with a PBS solution containing 2% BSA and then serially diluted across 11 gradients to achieve sample concentrations ranging from 0.014 ng/mL to 15000 ng/mL. A375 cells were taken, centrifuged at 500× g for 5 min, washed 3 times with a PBS solution containing 2% BSA, incubated with samples at different dilution concentrations at 4 °C for 2 h, further washed, and then incubated with the goat anti-human Alexa Fluor 488 fluorescent dye at 4 °C for 1 h in the dark. After washing, the cells were resuspended, and the mean fluorescence intensity (MFI) of the cells was measured using an Attune NxT flow cytometer (Thermo Fisher Scientific, Inc.). Table 26: Determination of affinities of ADCs for B7H3 antigen on A375 surface by flow cytometry

Hep3B xenograft tumor = test: Pharmacodynamic evaluation in Hep3B xenograft tumor mouse model; assay type: in vivo, nu/nu nude mice; conditions: 2 mg/kg, single injection; for Mean tumor volume (Day 0): Day 0 (day of grouping), mean ± standard error; for TGI(%): Day 22; for Mean tumor volume (Day 22): Day 22, mean ± standard error
Description: (§1) Cells were taken from the B7H3-positive cell strain Hep3B and inoculated into the right forelimb axilla of nu/nu nude mice aged 4-6 weeks at 10^7 cells/mouse (6 mice per group). When the mean tumor volumes of the mice reached about 150 mm^3, the mice were randomly grouped and subjected to administration by a single injection. The day of grouping was defined as Day 0, and the administration was started on Day 0. After tumor grafting, the experimental animals were routinely monitored for tumor growth and the effect of treatment on the normal behavior, specifically the activity, food and water intake, body weight gain or loss (the body weight was measured twice a week), and abnormalities in eyes, fur, and other aspects. Calculation formula for tumor volume: Tumor volume (mm^3) = 1/2 × (a × b^2) (where a represents the long diameter, and b represents the short diameter). Table 27: Pharmacodynamic evaluation of test drugs in liver cancer xenograft Hep3B mouse model

[2] = DAR determination by reversed-phase chromatography; conditions: average drug loading per antibody
Experimental: The antibody sample was diluted to about 10 mg/mL with a suitable buffer (consistent with the sample buffer), and an appropriate amount of a reducing agent TCEP was added, with the number of equivalents adjusted according to a target DAR (8-10 equivalents for a target DAR of 8). The pH was then adjusted to 7-7.4 with a Tris buffer, and the antibody was reduced at room temperature for 1-1.5 h. The reduced intermediate state of the antibody could be monitored by CE-SDS. […] The conjugation reaction was performed at room temperature for about 30 min. After the conjugation was completed, the reaction liquid was first filtered, and then subjected to buffer exchange by ultrafiltration using a centrifugal concentration tube to remove excess linker-drug and other small-molecule impurities. After the purification was completed, the resulting sample was subjected to DAR determination by reversed-phase chromatography.
(§2) The concentration of the antibody trastuzumab was adjusted to 10 g/L using a phosphate buffer solution (pH 7.0), and the antibody solution after buffer exchange was placed into a centrifuge tube, followed by the addition of 8.0 equivalents of 5 mM TCEP (Adamas-beta, Ltd.). […] The average drug loading per antibody was determined by reversed-phase chromatography.
as §2, with “farletuzumab or farletuzumab FcS” for “trastuzumab”, “7.0” for “8.0”
as §2, with “33B” for “trastuzumab”, “10.0” for “8.0”, “chromatography. […]” for “chromatography.”

A375 xenograft tumor = test: Pharmacodynamic evaluation in A375 xenograft tumor mouse model; assay type: in vivo, nu/nu nude mice; conditions: A375, 2 mg/kg, i.v., single administration, mean ± standard error; for Mean tumor volume (Day 0): Day 0 (day of grouping)
Description: as §1, with “A375” for “Hep3B”, “(7” for “(6”, “130” for “150”, “administration.” for “administration by a single injection.”, “28: Grouping and administration regimen” for “27: Pharmacodynamic evaluation of test drugs in liver cancer xenograft Hep3B mouse model”

Molecule	EC50 [1] [µg/mL]	Mean tumor volume (Day 0) (Hep3B xenograft tumor) [mm^3]	TGI(%) (Hep3B xenograft tumor)	Mean tumor volume (Day 22) (Hep3B xenograft tumor) [mm^3]	DAR [2]	Mean tumor volume (Day 0) (A375 xenograft tumor) [mm^3]	Mean tumor volume (Day 26) (A375 xenograft tumor) [mm^3]
B-ADC55-1-6 (conjugate) heavy: QVQLVQSGAEVKKPGASVKVSCKASGYTFTDYFMNWVRQAPGQGLEWMGDVNPKTGSPSYNQKFKGRVTMTRDTSTSTVYMELSSLRSEDTAVYYCARRYGFLYSMDYWGQGTSVTVSSASTKGPSVFPLAPSSKSTSGGTAALGCLVKDYFPEPVTVSWNSGALTSGVHTFPAVLQSSGLYSLSSVVTVPSSSLGTQTYICNVNHKPSNTKVDKRVEPKSCDKTHTSPPCPAPEAAGGPSVFLFPPKPKDTLMISRTPEVTCVVVDVSHEDPEVKFNWYVDGVEVHNAKTKPREEQYNSTYRVVSVLTVLHQDWLNGKEYKCKVSNKALAASIEKTISKAKGQPREPQVYTLPPSREEMTKNQVSLTCLVKGFYPSDIAVEWESNGQPENNYKTTPPVLDSDGSFFLYSKLTVDKSRWQQGNVFSCSVMHEALHNHYTQKSLSLSPGK light: DIQMTQSPSSLSASVGDRVTITCRASQDISNYLNWYQQKPGKAVKVLIYYTSRLHSGVPSRFSGSGSGTDFTFTISSLQPEDIATYYCQQGNTHPFTFGGGTKVEIKRTVAAPSVFIFPPSDEQLKSGTASVVCLLNNFYPREAKVQWKVDNALQSGNSQESVTEQDSKDSTYSLSSTLTLSKADYEKHKVYACEVTHQGLSSPVTKSFNRGEC	0.03778	153.0±57.1	66.5	917.5±405.8	5.7	128.9±39.0	144.6±90.1
B-ADC2-1-6 (conjugate) heavy: QVQLVQSGAEVKKPGASVKVSCKASGYTFTDYFMNWVRQAPGQGLEWMGDVNPKTGSPSYNQKFKGRVTMTRDTSTSTVYMELSSLRSEDTAVYYCARRYGFLYSMDYWGQGTSVTVSSASTKGPSVFPLAPSSKSTSGGTAALGCLVKDYFPEPVTVSWNSGALTSGVHTFPAVLQSSGLYSLSSVVTVPSSSLGTQTYICNVNHKPSNTKVDKRVEPKSCDKTHTSPPCPAPEAAGGPSVFLFPPKPKDTLMISRTPEVTCVVVDVSHEDPEVKFNWYVDGVEVHNAKTKPREEQYNSTYRVVSVLTVLHQDWLNGKEYKCKVSNKALAASIEKTISKAKGQPREPQVYTLPPSREEMTKNQVSLTCLVKGFYPSDIAVEWESNGQPENNYKTTPPVLDSDGSFFLYSKLTVDKSRWQQGNVFSCSVMHEALHNHYTQKSLSLSPGK light: DIQMTQSPSSLSASVGDRVTITCRASQDISNYLNWYQQKPGKAVKVLIYYTSRLHSGVPSRFSGSGSGTDFTFTISSLQPEDIATYYCQQGNTHPFTFGGGTKVEIKRTVAAPSVFIFPPSDEQLKSGTASVVCLLNNFYPREAKVQWKVDNALQSGNSQESVTEQDSKDSTYSLSSTLTLSKADYEKHKVYACEVTHQGLSSPVTKSFNRGEC	0.04161	152.5±52.7	56.8	1138.2±856.6	5.6	129.8±38.3	346.4±144.3
B-ADC12-1-6 (conjugate) heavy: QVQLVQSGAEVKKPGASVKVSCKASGYTFTDYFMNWVRQAPGQGLEWMGDVNPKTGSPSYNQKFKGRVTMTRDTSTSTVYMELSSLRSEDTAVYYCARRYGFLYSMDYWGQGTSVTVSSASTKGPSVFPLAPSSKSTSGGTAALGCLVKDYFPEPVTVSWNSGALTSGVHTFPAVLQSSGLYSLSSVVTVPSSSLGTQTYICNVNHKPSNTKVDKRVEPKSCDKTHTSPPCPAPEAAGGPSVFLFPPKPKDTLMISRTPEVTCVVVDVSHEDPEVKFNWYVDGVEVHNAKTKPREEQYNSTYRVVSVLTVLHQDWLNGKEYKCKVSNKALAASIEKTISKAKGQPREPQVYTLPPSREEMTKNQVSLTCLVKGFYPSDIAVEWESNGQPENNYKTTPPVLDSDGSFFLYSKLTVDKSRWQQGNVFSCSVMHEALHNHYTQKSLSLSPGK light: DIQMTQSPSSLSASVGDRVTITCRASQDISNYLNWYQQKPGKAVKVLIYYTSRLHSGVPSRFSGSGSGTDFTFTISSLQPEDIATYYCQQGNTHPFTFGGGTKVEIKRTVAAPSVFIFPPSDEQLKSGTASVVCLLNNFYPREAKVQWKVDNALQSGNSQESVTEQDSKDSTYSLSSTLTLSKADYEKHKVYACEVTHQGLSSPVTKSFNRGEC	0.04001	153.0±58.6	69.6	847.7±384.0	6.0	128.3±29.1	177.1±132.2
